Test results reported in patent publication US20200087367A1 (ACCELERON PHARMA, published 2020).
“And” between values parts separate entries of the source, which are not always exact repeats. Equal entries are not always repeated.

What was measured:
BMP10 [1] = molecular target: T1, BMP10 (human, UniProt O95393 317-424); assay: cell-based or functional assay
T1 sequence: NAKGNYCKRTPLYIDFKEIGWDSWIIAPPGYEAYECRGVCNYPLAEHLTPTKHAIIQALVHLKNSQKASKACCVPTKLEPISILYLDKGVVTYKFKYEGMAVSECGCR

BMP9 [2] = molecular target: T2, BMP9 (human, UniProt Q9UK05 320-429); assay: SPR (Biacore), BMP10pro-Fc captured by anti-Fc antibody, ligand injected
T2 construct: also called hBMP-9; hBMP9
T2 sequence (looked up): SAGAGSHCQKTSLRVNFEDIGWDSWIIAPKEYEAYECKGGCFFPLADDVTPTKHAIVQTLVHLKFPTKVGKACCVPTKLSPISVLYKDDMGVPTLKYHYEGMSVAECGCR
Method: (§1) The BMP10pro-Fc proteins were separately was captured onto the system using an anti-Fc antibody, and ligands were injected and allowed to flow over the captured receptor protein. […] The mouse Fc equivalent constructs behaved similarly. […] The affinity of BMP10pro(22-315)-hFc for BMP3b was not assessed.

BMP5 [3] = molecular target: T3, BMP5 (human, UniProt P22003 317-454, limits assumed); assay: as above
T3 sequence (looked up): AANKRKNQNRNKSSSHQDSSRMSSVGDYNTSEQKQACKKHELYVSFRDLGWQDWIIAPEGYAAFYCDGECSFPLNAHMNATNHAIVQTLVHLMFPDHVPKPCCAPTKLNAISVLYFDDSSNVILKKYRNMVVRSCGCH
Method: as §1

BMP10 [4] = molecular target: T1, BMP10; assay: cell-based or functional assay; remark: listed apart in the source
BMP3b = molecular target: T4, BMP3b (human, UniProt P55107 369-478); assay: SPR (Biacore), BMP10pro-Fc captured by anti-Fc antibody, ligand injected
T4 construct: also called GDF10
T4 sequence (looked up): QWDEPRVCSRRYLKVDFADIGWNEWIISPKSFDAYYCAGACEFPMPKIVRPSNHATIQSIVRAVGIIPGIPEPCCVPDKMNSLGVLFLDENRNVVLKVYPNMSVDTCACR
Method: as §1

BMP10 [5] = molecular target: T1, BMP10; assay: SPR (Biacore), ligand amine-coupled to chip, Fc fusion injected
BMP9 [6] = molecular target: T2, BMP9; assay: as above
BMP6 = molecular target: T5, BMP6 (human, UniProt P22004 382-513, limits assumed); assay: as above
T5 sequence (looked up): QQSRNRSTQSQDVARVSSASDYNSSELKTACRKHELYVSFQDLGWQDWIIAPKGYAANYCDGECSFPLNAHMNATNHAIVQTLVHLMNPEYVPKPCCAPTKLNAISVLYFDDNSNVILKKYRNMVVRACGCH

BMP5 [7] = molecular target: T3, BMP5; assay: as above
BMP9 [8] = molecular target: T2, BMP9; assay: SPR kinetics; CHO-cell-derived protein
BMP10 [9] = molecular target: T1, BMP10; assay: SPR kinetics; CHO-cell-derived protein
BMP2 = molecular target: T6, BMP2 (human, UniProt P12643 283-396); assay: SPR ligand screen; '-' = Binding undetectable
T6 construct: also called hBMP-2
T6 sequence (looked up): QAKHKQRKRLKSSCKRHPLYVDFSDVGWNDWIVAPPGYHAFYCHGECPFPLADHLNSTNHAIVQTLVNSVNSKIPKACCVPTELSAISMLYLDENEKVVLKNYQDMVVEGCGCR

BMP7 = molecular target: T7, BMP7 (human, UniProt P18075 293-431); assay: SPR ligand screen; '-' = Binding undetectable
T7 construct: also called hBMP-7
T7 sequence (looked up): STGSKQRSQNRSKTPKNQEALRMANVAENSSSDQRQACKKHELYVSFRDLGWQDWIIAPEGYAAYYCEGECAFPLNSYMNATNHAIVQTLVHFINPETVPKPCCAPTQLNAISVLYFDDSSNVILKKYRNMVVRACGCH

hBMP-2/7 = molecular target: T8, hBMP-2/7 (human, UniProt P12643 283-396; P18075 293-431); assay: SPR ligand screen; '-' = Binding undetectable
T8 sequence (looked up) 1: T6 sequence (looked up)
T8 sequence (looked up) 2: T7 sequence (looked up)

TGF-β1 = molecular target: T9, TGF-β1 (human, UniProt P01137 in part); assay: SPR ligand screen; '-' = Binding undetectable
Sequence of TGF-β1 (P01137 279-390 limits assumed): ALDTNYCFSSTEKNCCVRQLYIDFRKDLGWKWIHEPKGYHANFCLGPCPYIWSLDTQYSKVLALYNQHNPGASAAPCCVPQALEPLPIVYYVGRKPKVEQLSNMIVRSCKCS
T9 construct: also called hTGF-β1

TGF-β2 = molecular target: T10, TGF-β2 (human, UniProt P61812 303-414); assay: SPR ligand screen; '-' = Binding undetectable
T10 construct: also called hTGF-β2
T10 sequence (looked up): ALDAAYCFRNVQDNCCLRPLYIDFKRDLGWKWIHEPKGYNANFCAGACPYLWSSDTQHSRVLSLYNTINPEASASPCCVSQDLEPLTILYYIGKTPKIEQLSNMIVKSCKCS

TGF-β3 = molecular target: T11, TGF-β3 (human, UniProt P10600 301-412); assay: SPR ligand screen; '-' = Binding undetectable
T11 construct: also called hTGF-β3
T11 sequence (looked up): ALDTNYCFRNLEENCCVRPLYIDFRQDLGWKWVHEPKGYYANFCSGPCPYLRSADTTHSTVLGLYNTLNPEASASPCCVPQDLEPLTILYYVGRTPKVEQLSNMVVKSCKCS

activin A = molecular target: T12, activin A (human, UniProt P08476 311-426); assay: SPR ligand screen; '-' = Binding undetectable
T12 construct: also called hActivin A
T12 sequence (looked up): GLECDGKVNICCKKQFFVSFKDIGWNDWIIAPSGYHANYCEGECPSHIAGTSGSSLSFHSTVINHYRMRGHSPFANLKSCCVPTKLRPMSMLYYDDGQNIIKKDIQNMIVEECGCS

BMP9 [10] = molecular target: T2, BMP9; assay: SPR kinetics
BMP10 [11] = molecular target: T1, BMP10; assay: SPR (Biacore), BMPRII-Fc captured by anti-Fc antibody, ligand injected
Method: (§2) A Biacore™-based binding assay was used to determine the ligand binding selectivity of the BMPRII-Fc protein complex described above. The BMPRII-Fc homodimer was captured onto the system using an anti-Fc antibody, and ligands were injected and allowed to flow over the captured receptor protein.

BMP9 [12] = molecular target: T2, BMP9; assay: as above
Method: as §2

BMP9 [13] = molecular target: T2, BMP9; assay: SPR kinetics; HEK293-cell-derived protein
BMP10 [14] = molecular target: T1, BMP10; assay: SPR kinetics; HEK293-cell-derived protein

B1: BMP10pro(22-315)-hFc (Fc fusion)
chain: SPIMNLEQSPLEEDMSLFGDVFSEQDGVDFNTLLQSMKDEFLKTLNLSDIPTQDSAKVDPPEYMLELYNKFATDRTSMPSANIIRSFKNEDLFSQPVSFNGLRKYPLLFNVSIPHHEEVIMAELRLYTLVQRDRMIYDGVDRKITIFEVLESKGDNEGERNMLVLVSGEIYGTNSEWETFDVTDAIRRWQKSGSSTHQLEVHIESKHDEAEDASSGRLEIDTSAQNKHNPLLIVFSDDQSSDKERKEELNEMISHEQLPELDNLGLDSFSSGPGEEALLQMRSNIIYDSTARIRTG[human IgG1 Fc and a few adjoining residues not shown]
notes: C-terminal lysine may optionally be absent; also called BMP10 propeptide-Fc fusion protein
- IC50 (BMP10), SBE4-luc luciferase reporter in HMVEC cells (BMP10 [1]): 61.2 ng/ml and 517 pM
- binding result (BMP9 [2]): binds
- binding result (BMP5 [3]): binds

B2: BMP10pro(22-312)-hFc (Fc fusion)
chain: SPIMNLEQSPLEEDMSLFGDVFSEQDGVDFNTLLQSMKDEFLKTLNLSDIPTQDSAKVDPPEYMLELYNKFATDRTSMPSANIIRSFKNEDLFSQPVSFNGLRKYPLLFNVSIPHHEEVIMAELRLYTLVQRDRMIYDGVDRKITIFEVLESKGDNEGERNMLVLVSGEIYGTNSEWETFDVTDAIRRWQKSGSSTHQLEVHIESKHDEAEDASSGRLEIDTSAQNKHNPLLIVFSDDQSSDKERKEELNEMISHEQLPELDNLGLDSFSSGPGEEALLQMRSNIIYDSTATG[human IgG1 Fc and a few adjoining residues not shown]
notes: C-terminal lysine may optionally be absent
- BMP10 antagonizing activity against that of BMP10pro(22-315)-hFc (BMP10 [4]): ≥ 3 fold
- IC50 (BMP10), SBE4-luc luciferase reporter in HMVEC cells (BMP10 [1]): 17.7 ng/ml and 150 pM
- binding result (BMP9 [2]): binds
- binding result (BMP5 [3]): binds
- binding result (BMP3b): binds

B3: ActRIIA-hFc (Fc fusion)
chain: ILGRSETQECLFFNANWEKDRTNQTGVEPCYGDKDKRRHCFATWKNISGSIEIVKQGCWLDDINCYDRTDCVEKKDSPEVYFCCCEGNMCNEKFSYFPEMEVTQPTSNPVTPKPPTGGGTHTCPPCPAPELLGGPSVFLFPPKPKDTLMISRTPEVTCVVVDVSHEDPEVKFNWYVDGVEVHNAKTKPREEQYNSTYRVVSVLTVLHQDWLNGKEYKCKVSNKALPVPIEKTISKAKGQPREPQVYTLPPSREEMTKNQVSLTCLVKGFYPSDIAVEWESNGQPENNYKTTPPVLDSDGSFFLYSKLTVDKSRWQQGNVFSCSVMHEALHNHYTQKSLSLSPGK
notes: Extracellular domain of human ActRIIA, linker, human Fc
- Kd (BMP10 [5]): 0.333 nM
- Kd (BMP9 [6]): 10.4 nM
- Kd (BMP6): 0.556 nM
- Kd (BMP5 [7]): 1.14 nM

B4: hENG(26-359)-hFc (Fc fusion)
chain: ETVHCDLQPVGPERDEVTYTTSQVSKGCVAQAPNAILEVHVLFLEFPTGPSQLELTLQASKQNGTWPREVLLVLSVNSSVFLHLQALGIPLHLAYNSSLVTFQEPPGVNTTELPSFPKTQILEWAAERGPITSAAELNDPQSILLRLGQAQGSLSFCMLEASQDMGRTLEWRPRTPALVRGCHLEGVAGHKEAHILRVLPGHSAGPRTVTVKVELSCAPGDLDAVLILQGPPYVSWLIDANHNMQIWTTGEYSFKIFPEKNIRGFKLPDTPQGLLGEARMLNASIVASFVELPLASIVSLHASSCGGRLQTSPAPIQTTPPKDTCSPELLMSLITGGG[human IgG1 Fc not shown]
notes: also called Human ENG(26-359)-hFc
- Kd (BMP9 [8]): 0.0042 nM
- koff (BMP9 [8]): 0.00035 s⁻¹
- Kd (BMP10 [9]): 0.086 nM
- koff (BMP10 [9]): 0.0023 s⁻¹
- binding result (BMP2): no binding (tested: 100 nM)
- binding result (BMP7): no binding (tested: 100 nM)
- binding result (hBMP-2/7): no binding (tested: 100 nM)
- binding result (TGF-β1): no binding (tested: 100 nM)
- binding result (TGF-β2): no binding (tested: 100 nM)
- binding result (TGF-β3): no binding (tested: 50 nM)
- binding result (activin A): no binding (tested: 100 nM)

B5: hENG(26-346)-hFc (Fc fusion)
chain: ETVHCDLQPVGPERDEVTYTTSQVSKGCVAQAPNAILEVHVLFLEFPTGPSQLELTLQASKQNGTWPREVLLVLSVNSSVFLHLQALGIPLHLAYNSSLVTFQEPPGVNTTELPSFPKTQILEWAAERGPITSAAELNDPQSILLRLGQAQGSLSFCMLEASQDMGRTLEWRPRTPALVRGCHLEGVAGHKEAHILRVLPGHSAGPRTVTVKVELSCAPGDLDAVLILQGPPYVSWLIDANHNMQIWTTGEYSFKIFPEKNIRGFKLPDTPQGLLGEARMLNASIVASFVELPLASIVSLHASSCGGRLQTSPAPIQTTPPTG[human IgG1 Fc and a few adjoining residues not shown]
- fold decrease of the BMP9 dissociation rate against the full-length construct hENG(26-586)-hFc (BMP9 [10]): 10 fold
- Kd (BMP9 [8]): 0.0043 nM
- koff (BMP9 [8]): 0.00024 s⁻¹
- Kd (BMP10 [9]): 0.14 nM
- koff (BMP10 [9]): 0.0028 s⁻¹
- binding result (BMP2): no binding (tested: 100 nM)
- binding result (BMP7): no binding (tested: 100 nM)
- binding result (hBMP-2/7): no binding (tested: 100 nM)
- binding result (TGF-β1): no binding (tested: 100 nM)
- binding result (TGF-β2): no binding (tested: 100 nM)
- binding result (TGF-β3): no binding (tested: 50 nM)
- binding result (activin A): no binding (tested: 100 nM)

B6: BMPRII-Fc fusion protein (Fc fusion)
chain: SQNQERLCAFKDPYQQDLGIGESRISHENGTILCSKGSTCYGLWEKSKGDINLVKQGCWSHIGDPQECHYEECVVTTTPPSIQNGTYRFCCCSTDLCNVNFTENFPPPDTTPLSPPHSFNRDETG[human IgG1 Fc and a few adjoining residues not shown]
notes: Processed polypeptide; extracellular domain of human BMPRII, linker, human IgG1 Fc; C-terminal lysine may optionally be absent; also called BMPRII-Fc homodimer; homodimeric BMPRII-Fc
- Kd (BMP10 [11]): 0.1 nM
- koff (BMP10 [11]): 0.0025 s⁻¹
- kon (BMP10 [11]): 2.6e+07 M⁻¹ s⁻¹
- Kd (BMP9 [12]): 2.1 nM
- koff (BMP9 [12]): 0.026 s⁻¹
- kon (BMP9 [12]): 1.2e+07 M⁻¹ s⁻¹

B7: ActRIIA-mFc (Fc fusion)
chain: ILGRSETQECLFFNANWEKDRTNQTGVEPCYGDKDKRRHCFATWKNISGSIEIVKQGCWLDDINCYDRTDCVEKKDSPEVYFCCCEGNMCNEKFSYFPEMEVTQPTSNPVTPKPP
notes: not shown: linker and mouse Fc domain
- binding result (BMP5 [7]): binds

B8: hENG(26-378)-hFc (Fc fusion)
chain: ETVHCDLQPVGPERDEVTYTTSQVSKGCVAQAPNAILEVHVLFLEFPTGPSQLELTLQASKQNGTWPREVLLVLSVNSSVFLHLQALGIPLHLAYNSSLVTFQEPPGVNTTELPSFPKTQILEWAAERGPITSAAELNDPQSILLRLGQAQGSLSFCMLEASQDMGRTLEWRPRTPALVRGCHLEGVAGHKEAHILRVLPGHSAGPRTVTVKVELSCAPGDLDAVLILQGPPYVSWLIDANHNMQIWTTGEYSFKIFPEKNIRGFKLPDTPQGLLGEARMLNASIVASFVELPLASIVSLHASSCGGRLQTSPAPIQTTPPKDTCSPELLMSLIQTKCADDAMTLVLKKELVATG[human IgG1 Fc and a few adjoining residues not shown]
notes: also called Human ENG(26-378)-hFc (truncated Fc)
- Kd (BMP9 [13]): 0.0067 nM
- koff (BMP9 [13]): 0.00034 s⁻¹
- Kd (BMP10 [14]): 0.095 nM
- koff (BMP10 [14]): 0.0019 s⁻¹
